Experimental findings from paper PMC4336329 (PLoS ONE, 2015) are described below.

About 2,200 (0.71%) of roughly 310,000 compounds showed an effect of 50% or more. The effect is printed as a negative number. The list shows a part of the results.

human ether-à-go-go-related gene (hERG) potassium channel, sequence (Q12809 whole entry, looked up): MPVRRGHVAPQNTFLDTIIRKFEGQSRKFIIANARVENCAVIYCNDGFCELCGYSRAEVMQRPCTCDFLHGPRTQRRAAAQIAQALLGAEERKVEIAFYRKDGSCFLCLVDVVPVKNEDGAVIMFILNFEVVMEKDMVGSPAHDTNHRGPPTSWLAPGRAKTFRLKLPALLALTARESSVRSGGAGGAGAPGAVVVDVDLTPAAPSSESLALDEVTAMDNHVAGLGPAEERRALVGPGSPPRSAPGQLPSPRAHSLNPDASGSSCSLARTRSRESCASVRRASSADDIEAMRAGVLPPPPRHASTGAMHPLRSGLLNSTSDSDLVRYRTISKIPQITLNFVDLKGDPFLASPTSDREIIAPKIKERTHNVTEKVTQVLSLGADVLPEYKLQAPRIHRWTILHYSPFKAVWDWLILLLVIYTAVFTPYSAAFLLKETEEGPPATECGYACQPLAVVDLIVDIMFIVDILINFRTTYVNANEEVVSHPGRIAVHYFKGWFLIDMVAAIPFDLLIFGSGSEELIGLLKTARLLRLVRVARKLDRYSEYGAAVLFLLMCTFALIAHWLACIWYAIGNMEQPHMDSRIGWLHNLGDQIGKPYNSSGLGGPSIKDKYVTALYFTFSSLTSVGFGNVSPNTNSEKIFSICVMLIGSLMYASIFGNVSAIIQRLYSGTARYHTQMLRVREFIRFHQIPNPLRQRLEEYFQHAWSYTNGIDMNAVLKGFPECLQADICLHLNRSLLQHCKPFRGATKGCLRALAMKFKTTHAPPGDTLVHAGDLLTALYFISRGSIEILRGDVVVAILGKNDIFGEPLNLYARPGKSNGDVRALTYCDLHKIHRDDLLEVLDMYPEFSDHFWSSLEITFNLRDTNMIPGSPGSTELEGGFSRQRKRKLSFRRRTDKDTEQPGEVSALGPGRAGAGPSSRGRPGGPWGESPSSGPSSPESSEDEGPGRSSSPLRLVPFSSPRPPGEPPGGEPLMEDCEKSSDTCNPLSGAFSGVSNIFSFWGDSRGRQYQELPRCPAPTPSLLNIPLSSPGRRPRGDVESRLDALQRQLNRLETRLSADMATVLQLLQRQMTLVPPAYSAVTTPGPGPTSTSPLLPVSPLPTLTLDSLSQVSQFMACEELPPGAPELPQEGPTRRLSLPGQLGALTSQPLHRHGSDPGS

This assay has as its target human ether-à-go-go-related gene (hERG) potassium channel (human, UniProt Q12809). Description: primary screen, population patch clamp on CHO cells stably expressing hERG.
Turning to `CCc1cc(=O)oc2c(CN3CCN(C)CC3)c(O)ccc12`, the “hERG current change (%, negative = inhibition) at 1uM” value turned out to be 13%. In the case of `CC1=Nc2cc(C(=O)N3CCCCC3)ccc2Sc2ccc(C)cc21`, the “hERG current change (%, negative = inhibition) at 1uM” value is recorded as -23%.

For `COc1ccc(S(=O)(=O)N2CCCCC2)cc1NC(=O)c1ccc(Cl)nc1`, the “hERG current change (%, negative = inhibition) at 1uM” value turned out to be 4.95%.

Turning to `Cc1ccc(/C=C/C(=O)Oc2ccc(C#N)cc2)o1`, the “hERG current change (%, negative = inhibition) at 1uM” value was 11.9%.

Take `N#Cc1nc(-c2ccccc2)oc1NCc1ccco1`: the “hERG current change (%, negative = inhibition) at 1uM” value is listed as 8.76%. As to `CCCCCc1cc(=O)oc2c(C(CCN(CC)CC)c3ccc(OC)cc3)c(OC)cc(OC)c12` (stereo not shown), the “hERG current change (%, negative = inhibition) at 1uM” value amounted to 4.29%. With `Cc1ccc(C)c(OCC(=O)NCC(c2ccco2)N2CCCCC2)c1` (stereo not shown), the “hERG current change (%, negative = inhibition) at 1uM” value was found to be 9.48%. As for `O=C(COC(=O)c1cccs1)Nc1ccccc1[N+](=O)[O-]`, the “hERG current change (%, negative = inhibition) at 1uM” value is recorded as -6.77%. `CCCNC(=O)Cn1cnc2sc(C(=O)N3CCCC(C(=O)OCC)C3)c(C)c2c1=O` (stereo not shown): the “hERG current change (%, negative = inhibition) at 1uM” value turned out to be 13.6%. As for `CCSc1nnc2c(n1)OC(C)(C)Nc1ccccc1-2`, the “hERG current change (%, negative = inhibition) at 1uM” value was determined as 14.2%. Under `Cc1ccc(/C=C2\SC(N)=NC2=O)s1` stands 12.7%. `Cc1cc(C)cc(N2C(=O)C3NN=C(C(=O)OCc4ccccc4)C3C2=O)c1` (stereo not shown): the “hERG current change (%, negative = inhibition) at 1uM” value is given as -11.4%. Regarding `COCCn1c(=NC(=O)c2ccc(S(=O)(=O)N3CCCc4ccccc43)cc2)sc2cc(S(C)(=O)=O)ccc21`, the “hERG current change (%, negative = inhibition) at 1uM” value amounted to 5.7%. Regarding `O=C(O)CN1C(=O)/C(=C\c2cc(Br)ccc2OCc2ccc(Cl)cc2)SC1=S`, the “hERG current change (%, negative = inhibition) at 1uM” value was 10.4%. Under `CC(C)(C)c1nnc(NC(=O)CCn2cnc3ccccc3c2=O)s1` stands 10.4%. For the compound `O=C(NCc1ccco1)c1c2c(nc3ccccc13)CCC2`, the “hERG current change (%, negative = inhibition) at 1uM” value was 3.32%. Under `Cc1cc2cc(CN(Cc3ccco3)C(=S)NCC3CCCO3)c(=O)[nH]c2cc1C` (stereo not shown) stands 7.73%. Consider `COc1ccc(-n2ccnc2SCC(=O)NC2CCCC2)cc1`, for which the “hERG current change (%, negative = inhibition) at 1uM” value worked out at 6.16%. As to `Cc1cc(C(=O)OCC(=O)N2CCc3ccccc32)ccc1[N+](=O)[O-]`, the “hERG current change (%, negative = inhibition) at 1uM” value is recorded as 0.444%. With `O=C(O)C1=CC[C@@H](c2ccc(Cl)cc2)N(S(=O)(=O)c2ccc(Cl)cc2)[C@H]1c1cccc(Cl)c1`, the “hERG current change (%, negative = inhibition) at 1uM” value is given as 17.4%. Under `Cl.c1ccc(SCCN2CCN(c3ccccc3)CC2)cc1` stands 13.7%; under `COc1ccccc1C(=O)NCC(=O)N1CCN(S(=O)(=O)c2ccc3c(c2)OCCO3)CC1`, 10.5%; under `CS(=O)(=O)N(CC(=O)N1CCN(c2ccccc2)CC1)Cc1ccc(Cl)cc1`, -3.3%. For the compound `O=C(CSc1nnc(-c2ccccc2Cl)o1)N1CCCCC1`, the “hERG current change (%, negative = inhibition) at 1uM” value is -0.0555%. Consider `OCC1(CCOc2ccccc2)CCN(C2Cc3ccccc3C2)CC1`, for which the “hERG current change (%, negative = inhibition) at 1uM” value is reported as -11.9%.

As for `CCCCCn1c(=N)n(CC(O)COc2ccccc2OC)c2ccccc21` (stereo not shown), the “hERG current change (%, negative = inhibition) at 1uM” value is given as -82.8%. With `Cc1ncc(S(=O)(=O)c2ccccc2)c(-c2ccc(Cl)cc2Cl)n1`, the “hERG current change (%, negative = inhibition) at 1uM” value came to 15.7%. For `COc1cc([N+](=O)[O-])cc2cc(C(=O)N3CCCC3)c(=O)oc12`, the “hERG current change (%, negative = inhibition) at 1uM” value is 11%.

Regarding `CC(C)(C)c1ccc(N2C(=O)Cc3c2nc(N)c(C#N)c3N)cc1`, the “hERG current change (%, negative = inhibition) at 1uM” value is listed as 9.36%. In the case of `Cc1ccc(S(=O)(=O)N2CCN(C(=O)C3CCCC3)CC2)cc1C`, the “hERG current change (%, negative = inhibition) at 1uM” value is listed as 12.4%. Under `COc1cccc(C(Nc2ccccn2)c2c(NC(=O)c3ccco3)sc(C)c2C)c1` (stereo not shown) stands 13.4%; under `Cc1cnc(NC(=O)Cn2cnc3c2c(=O)n(C)c(=O)n3C)s1`, 9.38%. `COCCn1c(C)cc(/C=C(\C#N)C(=O)OC(C)C(=O)Nc2ccc(NC(C)=O)cc2)c1C` (stereo not shown): the “hERG current change (%, negative = inhibition) at 1uM” value is given as 13.7%. Take `O=C(c1cc2ccccc2o1)N1CCN(C/C=C/c2ccccc2)CC1`: the “hERG current change (%, negative = inhibition) at 1uM” value is 3.82%.

On to `C=CCn1c(SCc2nc3ccccc3nc2C)nnc1-c1ccoc1C`, for which the “hERG current change (%, negative = inhibition) at 1uM” value came out at 5.43%. Regarding `CCc1ccccc1NC(=O)CCc1c(C)nn(-c2ccc(N3CCOCC3)nn2)c1C`, the “hERG current change (%, negative = inhibition) at 1uM” value was 3.5%. As for `COc1ccc(S(=O)(=O)N(CCc2ccccc2)CC(=O)O)cc1Cl`, the “hERG current change (%, negative = inhibition) at 1uM” value is -6.62%. Take `CC(=O)NS(=O)(=O)c1ccc(NC(=O)c2cc(-c3ccc(C)c(C)c3)nc3ccccc23)cc1`: the “hERG current change (%, negative = inhibition) at 1uM” value is listed as 10.9%. `CC(=O)OC(Cn1nc(C)cc1C)c1ccccc1` (stereo not shown): the “hERG current change (%, negative = inhibition) at 1uM” value was 11.4%. Under `COc1ccc(OC)c(NC(=O)NC2(C(F)(F)F)Oc3ccccc3O2)c1` stands 2.38%; under `CCOC(=O)Cn1c(=O)c2c(nc3n2CCN3Cc2ccccc2)n(C)c1=O`, 1.59%. Regarding `COCCNC(=O)C(=O)NCCN1CCNCC1.O`, the “hERG current change (%, negative = inhibition) at 1uM” value was determined as 14.7%. Under `O=C(O)C(=O)O.O=C(c1cccs1)N1CCN(C2CCCCC2)CC1` stands -8.61%.
